# Measured values from PubChem BioAssay AID686971 (National Center for Advancing Translational Sciences (NCATS), 2013).
# Out of some 360,000 compounds screened, about 7,500 (2.1%) were called active. This list was built around the results that the source calls inconclusive (neither active nor inactive); the mix of calls is not that of the screen. Calls follow the shape of the dose curve; as a rule, active = well fitted cell-killing curve with a large enough effect; inconclusive = small, poorly fitted or top-dose-only effect, or effect the other way, or another doubt; inactive = no such curve, though single readings can be large or run the other way. Potencies of inconclusive entries are left out as doubtful fits.
# Assay: qHTS for induction of synthetic lethality in tumor cells producing 2HG: qHTS for the HT-1080-IDH1KD cell line;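 as to activity, negative = toxicity: 0% = DMSO wells and -100% = cell-free medium wells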
# Conditions: HT-1080 IDH1 knockdown viability, ATP luminescence, 48 h; activity, negative = toxicity: at 46.1 µM (top of the series) unless noted
# In short: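 Assay cells: HT-1080 with IDH1 knockdown, 750 per well, RPMI/5% FBS. Exposure: 48 h at 37 °C following 2 h pre-incubation. Read: CellTiter-Glo luminescence; fitted concentration-response, curve class assigned.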
# Potency is read from the fitted curve at half-maximal effect; tags tell the direction and shape of the fitted curve.
SMILES,Potency,"activity, negative = toxicity"
O=C(NC(=S)N(CCc1ccccc1)CCc1ccccc1)c1ccco1,inactive,
CN(c1ccc2nc3ccccc3c(=O)n2n1)C1CCCCC1,"inconclusive [cytotoxic, single point]",
CCCCc1c(-c2cccc(F)c2)ncn1CCc1ccccc1OC,"inconclusive [cytotoxic, single point]",
O=C(CCl)c1ccc2c(c1)CCN2C(=O)C1CCCCC1,"inconclusive [cytotoxic, single point]",
Cc1ccc(CNC(=O)c2ccc([N+](=O)[O-])o2)cc1,"inconclusive [cytotoxic, single point]",
COc1cc(C(=O)N2CCCCC2c2cc(C(=O)Nc3ccccc3Cl)no2)cc(OC)c1C (stereo unspecified),inactive,
COc1ccc(C(CNC(=O)c2cccc(S(=O)(=O)NCc3ccccc3)c2)N2CCOCC2)cc1 (stereo unspecified),inactive,
CCC(Sc1nc(N)c(NC(=O)c2ccc(OC)cc2)c(=O)[nH]1)C(=O)O (stereo unspecified),inactive,
NC(=O)c1cc[n+](CC(=O)c2ccc(NC(=O)c3ccccc3)cc2)cc1,inactive,
Cc1nc(N2CCN(Cc3ccc(Cl)cc3)CC2)c2oc3ccccc3c2n1,"inconclusive [cytotoxic, partial curve]",
COc1ccc(C(=O)Nc2c(N)nc(SCC(=O)NCC3CCCO3)[nH]c2=O)cc1OC (stereo unspecified),inactive,
CN(C)c1ccc(/C=C(\C#N)c2ccccc2)cc1,active: 10.3 µM,
O=C(CC(=O)c1ccccn1)c1ccccc1,"inconclusive [cytotoxic, partial curve]",
COc1ccc(NC(=O)CCS(=O)(=O)c2ccc3c(c2)oc(=O)n3C)cc1,inactive,
Cn1c(N)c(C(=O)COC(=O)C2CCC(C(C)(C)C)CC2)c(=O)n(C)c1=O (stereo unspecified),"inconclusive [cytotoxic, single point]",
CC(=O)Nc1ccc(S(=O)(=O)Oc2ccccc2N2CCCCC2)cc1,"inconclusive [cytotoxic, single point]",
Cc1nc2c(cnn2CCO)c(=O)[nH]1,inactive,
COc1ccc(/C=C2\SC(=O)N(CC(=O)Nc3cccc(C)c3)C2=O)cc1O,"inconclusive [cytotoxic, single point]",
Cc1ccc(OCCn2c(C)c(/C=N/n3cnnc3)c3ccccc32)cc1,"inconclusive [cytotoxic, single point]",
O[C@H]1C[C@H](c2ccccc2)N(CC2CCCCC2)C[C@@H]1n1cc(C2CC2)nn1,"inconclusive [cytotoxic, single point]",
CC(C)(C)S(=O)N1Cc2cc(C(=O)Nc3ccc(-c4ccccc4)cc3)nc(-c3cccc(-c4cc5ccccc5o4)c3)c2[C@@H]1CCO (stereo partly specified),"inconclusive [cytotoxic, single point]",
Cc1cc(C)n2nc(C(=O)OCC(=O)N(C)C3CCS(=O)(=O)C3)nc2n1 (stereo unspecified),inactive,
CCn1c2ccccc2c2cc(NC(=O)CNC)ccc21,"inconclusive [cytotoxic, partial curve]",

SMILES,Potency,"activity, negative = toxicity"
O=S(=O)(c1ccc(N2CC=C(c3ccccc3)CC2)nc1)N1CCCC1,"inconclusive [cytotoxic, single point]",
c1ccc2sc(Sc3ncnc4sccc34)nc2c1,"inconclusive [cytotoxic, partial curve]",
COc1ccc(NS(=O)(=O)c2cc(C(=O)N3CCN(C(C)=O)CC3)ccc2Cl)cc1,inactive,
CCOC(=O)C1(C)C=C(Nc2ccc(NC(C)=O)cc2)C(=O)N1c1ccc(NC(C)=O)cc1 (stereo unspecified),inactive,
O=S(=O)(c1ccc(SCCOc2ccccc2)nc1)N1CCCC1,inactive,
N#C/C(=C(/O)c1ccc([N+](=O)[O-])s1)c1nc2ccccc2[nH]1,"inconclusive [cytotoxic, full curve, poor fit]",
NC(=O)c1ccc(Cn2c(C(=O)c3cc(Cl)c(N)c(Cl)c3)c3ccccc3[n+]2[O-])cc1,active: 11.6 µM,
CS(=O)(=O)N1CCN(c2ccccc2NC(=O)c2ccco2)CC1,,inconclusive: 32.4%
Cc1ccc2c(CSc3nncn3C)cc(=O)oc2c1C,inactive,
Cc1c(C(=O)O)sc(=S)n1-c1ccc(Cl)cc1,"inconclusive [rising, single point]",
CCCCc1ccc(NC(=S)Nc2ccc(Cl)c(S(=O)(=O)N(C)C)c2)cc1,active: 20.6 µM,
CC(C)(C)C(=O)Oc1cccc(Nc2ncnc3ccccc23)c1,inactive,
OCC1(Cc2ccccc2C(F)(F)F)CCN(Cc2cccc3cnccc23)CC1,"inconclusive [cytotoxic, single point]",
CC(C)N1CC(O)=C(c2nc3ccccc3[nH]2)C1=N,inactive,
Cc1ccc(S(=O)(=O)N(CC(=O)Nc2cccnc2)c2cccc([N+](=O)[O-])c2)cc1,"inconclusive [cytotoxic, single point]",
CC1CCc2nc(NC(=O)Nc3ccc4c(c3)OCO4)sc2C1 (stereo unspecified),"inconclusive [cytotoxic, full curve, poor fit]",
CCc1nnc(NS(=O)(=O)c2ccc(NC(=O)c3ccccc3OC)cc2)s1,inactive,
Cc1cccc(C(=O)Nc2nnc(-c3cccnc3)o2)c1,"inconclusive [cytotoxic, partial curve, poor fit]",
CCOC(=O)c1ccc(NC(=O)Nc2ccn(C)n2)cc1,"inconclusive [cytotoxic, single point]",
COc1ccc([C@H]2CC(=O)C=C(c3cc(Cl)ccc3OC)C2)cc1,"inconclusive [cytotoxic, single point]",
C=CCNC(=O)/C(C#N)=C/c1c(C)nn(-c2ccccc2)c1Cl,"inconclusive [cytotoxic, single point]",
O=C(Nc1ccc(Cl)c(Cl)c1)N(Cc1cccnc1)Cc1ccco1,"inconclusive [cytotoxic, single point]",
Cc1ccc(N2C(=O)[C@@H]3[C@H](C2=O)C2CCCN2[C@@H]3C(=O)c2ccccc2)cc1 (stereo partly specified),"inconclusive [cytotoxic, single point]",
